The record followed here is PubChem BioAssay (NCI).

Where “and” joins values, the source holds several entries; their conditions need not be identical. Equal values may be shown once.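 These data come from cells grown in 96-well plates and exposed to compound for 48 hours at five concentrations. GI50 is the concentration that inhibits growth by half. At the TGI there is no net growth.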 A value given as a limit tells only on which side of the number the result lay.

The test system of this assay is NCI-H322M lung. Put plainly: NCI anticancer screen, dose series, 48 h.
Regarding `O=c1[nH]c(=O)n(C2OC(CO)C(O)C2O)cc1OCCc1ccccc1` (stereo unspecified), the TGI is above 100 µM.

Molecule `O=C1Nc2ccccc2/C1=C/c1ccccc1` yielded a TGI of 30.7 µM.

In the case of `CNC(=O)c1n[nH]n(Cc2ccccc2)c1=S`, the TGI is above 100 µM.

`COc1cc(C=Nc2ccc(S(N)(=O)=O)cc2)cc(OC)c1` returned a TGI above 50 µM.

For `COc1cc2c3c(n(CCCCNC(=O)OCC4c5ccccc5-c5ccccc54)c(=O)c2cc1OC)-c1cc2c(cc1C3=O)OCO2`, the GI50 was 35.7 µM and the TGI was above 100 µM.

For `O=C(O)/C=C/c1cnc[nH]1`, the TGI is above 500 µM.

Regarding `C=CCOC(=O)CCCCCCCCCCCCCCCOC(=O)c1c(CCC[C@@H](C)O[Si](C)(C)C(C)(C)C)nc(=O)n2c1CC[C@H]2CC1(CC/C=C\[C@H](CC)O[Si](C(C)C)(C(C)C)C(C)C)OCCO1`, the TGI is above 100 µM.

With `CCN(CC)c1nc(N(C)C)c2ccc(OC)cc2n1`, the TGI is 36 µM.

As to `CS(=O)(=O)Nc1cccc(-c2ccc3c(NC(=O)C4CC4)n[nH]c3c2)c1`, the GI50 was above 25 µM and the TGI is above 25 µM.

Consider `COc1ccc(C(=O)/C=C/c2ccc(OCC(=O)O)cc2)cc1`, for which the TGI was above 100 µM.

The molecule `O=Cc1[nH]c(=O)[nH]c(=O)c1CCl` had a TGI above 100 µM.

Regarding `c1ccc2c(-c3nc4ccccc4[nH]3)cccc2c1`, the GI50 was 6.69 µM and the TGI came out at 44 µM.

As for `CCCN1CN(c2ccccc2)C2(CCN(CCCC(=O)c3ccc(F)cc3)CC2)C1=O`, the TGI was 20.6 µM.

Regarding `CC1CC(=O)C(CC(=O)O)C1C(C(=O)C(=O)Nc1c(C#N)cccc1[N+](=O)[O-])[N+](=O)[O-]` (stereo unspecified), the TGI is above 100 µM.

In the case of `COc1ccc(N=Nc2c(C)c(C#N)c(=S)n(C3OC(COC(C)=O)C(OC(C)=O)C(OC(C)=O)C3OC(C)=O)c2-c2ccccc2)cc1` (stereo unspecified), the TGI was 25.6 µM.

Turning to `CCC[CH2][Sn]1([CH2]CCC)[O]C(=O)c2cccc(OC)c2[O]1`, the GI50 was 1.18 µM and the TGI is 2.41 µM.

In turn, `CC(C)CCNC(=O)c1ccc(CNC(=O)/C=C/c2csc(-c3ccccc3)n2)cc1` had a TGI above 100 µM.

In the case of `CCSc1nc(N2CCCCC2)c2cn[nH]c2n1`, the GI50 was 67.9 µM and the TGI was above 100 µM.

For the molecule `CN(C)CS/C(N)=N\C(O)C(Cl)(Cl)Cl` (stereo unspecified), the TGI is above 100 µM.

Take `C/C=C(\CCC1NCCc2c1[nH]c1ccccc21)[Si](C)(C)C` (stereo unspecified): the GI50 is 8.28 µM and 3.23 µM; the TGI is 20 µM and 9.95 µM.

With `CC(C)C(Sc1nc(-c2ccccc2)c(-c2ccccc2)[nH]1)C(=O)N/N=C/c1ccc([N+](=O)[O-])cc1` (stereo unspecified), the TGI was above 100 µM.

Consider `COc1cc(-n2cc(-c3ccc(F)cc3)[nH]c2=S)cc(OC)c1OC`, for which the GI50 is above 100 µM and the TGI is above 100 µM.

Consider `CC(=O)[O-].CC(=O)[O-].O=C(N/N=C/c1cc(Cl)cc(Cl)c1[OH2+])c1ccncc1.[Zn+2]`, for which the TGI is above 100 µM.

In turn, `COc1cc(S(=O)(=O)Nc2ccc(-c3csc(N4C(=O)C(C)SC4c4ccccc4O)n3)cc2)ccc1Cl` (stereo unspecified) registered a TGI above 100 µM.

The molecule `COc1cc2c(oc(=O)c3cc4ccoc4c(OC)c32)c2cccc(O)c12` returned a TGI above 100 µM.

`COc1ccc(NC(=O)COC(=O)c2cccc3c(=O)c4ccccc4[nH]c23)cc1` had a TGI of 97.9 µM.

`O=C1/C(=C/c2ccc(Cl)cc2)N=C(c2ccccc2)N1C1Nc2cc3c(cc2S1)NC(N1C(=O)/C(=C/c2ccc(Cl)cc2)N=C1c1ccccc1)S3` (stereo unspecified) displayed a TGI above 100 µM.

`O=C1N(CN2CCOCC2)CN(CN2CCOCC2)C(=O)N1Cc1ccccc1` came in with a TGI above 100 µM.

`C[N+](C)(C)C1(C(=O)[O-])CC1` had a TGI above 100 µM.

As for `COc1ccc(/C=C(\C(=O)OCC(C)C)c2ccc(OC)c(OC)c2)cc1OC`, the TGI is above 100 µM.

Consider `CC1(C)CCCCCC(C)(CCCCCCCCCCCO)C1=O` (stereo unspecified), for which the TGI is 28.6 µM.

Take `O=c1c[n+](-c2ccccc2)[nH]o1`: the TGI is above 100 µM.

As for `O=C1c2ccccc2C(=O)c2c1oc(=O)c1ccccc21`, the TGI was determined as 20 µM.

Regarding `c1ccc2c(Nc3ccc(Oc4ccc(Nc5c6ccccc6nc6ccccc56)cc4)cc3)c3ccccc3nc2c1`, the GI50 is 0.194 µM and 0.249 µM; the TGI is 0.394 µM and 0.736 µM.

In the case of `Cn1c(=O)c2nc3nnc(C#N)c(N)n3c2n(C)c1=O`, the TGI is above 100 µM.

As for `Cc1cc(O)ccc1O`, the GI50 was 37.6 µM and the TGI is above 100 µM.

`Cc1ccc(-c2nc3c(C(=O)NCCN(C)C)cccc3[nH]2)cc1` came in with a TGI of 47 µM.

The molecule `COc1ccc(C(=O)Cn2c(C(C)=O)nc3ccccc32)cc1` displayed a TGI above 100 µM.

`N#CCC12CC=CCC1=C(O)C(=O)c1ccc(O)cc12` (stereo unspecified) gave a TGI above 100 µM.

As for `CO/N=C(\COc1ccc2c(c1)oc(=O)c1cc(OC)ccc12)c1ccc(F)cc1`, the GI50 was 18.2 µM and the TGI turned out to be 54 µM.

Regarding `O=C1/C(=C/c2ccc([N+](=O)[O-])o2)Oc2ccccc21`, the GI50 was 11.6 µM and the TGI stood at 24.6 µM.

`CCCC(=O)Nc1cc([N+](=O)[O-])c([N+](=O)[O-])cc1OC` gave a TGI of 25.7 µM.

As to `Cc1nc(N)sc1N=Nc1cc(Cl)c([N+](=O)[O-])cc1Cl`, the TGI worked out at 41.8 µM.

With `C[C@@H]1OC(=O)C[C@H]2CC(=O)N(CCC3CN(S(=O)(=O)C(F)(F)F)c4ccc(Cc5ccc6c(c5)C(CCN5C[C@H]7[C@@H](CC(=O)O[C@H]7C)CC5=O)CN6S(=O)(=O)C(F)(F)F)cc43)C[C@@H]21` (stereo partly specified), the TGI was above 100 µM.

For `COC(=O)c1cc2c3ccccc3n3c(=O)c4cc5cc(OC)c(N(S(=O)(=O)c6ccc(C)cc6)S(=O)(=O)c6ccc(C)cc6)cc5nc4c(n1)c23`, the GI50 was above 100 µM and the TGI was above 100 µM.

The molecule `CCOC(=O)C1(C(=O)OCC)CSC1` gave a TGI of 10.3 µM.

`CN(C)c1ccc(/C=C/c2ccnc3ccccc23)cc1N`: the TGI was found to be 35.2 µM.

The molecule `COc1ccc(-c2oc3cc(OC)c(OC)c(OC)c3c(=O)c2OC)cc1OC` had a TGI above 100 µM.

In turn, `O=C1OC2c3ccccc3C(=O)C2(c2ccccc2)N1c1ccccc1` (stereo unspecified) came in with a TGI above 200 µM.

On to `COc1cc(/C=C/c2sc3ccccc3[n+]2C)ccc1N(C)C`, for which the TGI turned out to be 45.4 µM.

As for `O[C@@H]1CCCN1Cc1cc2cc3c(cc2c2cc(OCc4ccccc4)ccc12)OCO3`, the GI50 was 3.76 µM and the TGI amounted to 13.2 µM.

For `O=C1CSC(=S)N1Cc1cccnc1`, the GI50 was 24.3 µM and the TGI worked out at 72.9 µM.

The molecule `COc1cc(CNC(=O)[C@H](Cc2ccc(O)cn2)NC(C)=O)cc(OC)c1` showed a TGI above 100 µM.

As for `COc1cc2c(cc1OCCCCCn1c(-c3ccco3)nc3ccccc31)N=C[C@@H]1CCCN1C2=O`, the GI50 is 0.0277 µM.

For `Cc1[nH]n(-c2ccc(S(=O)(=O)O)cc2)c(=O)c1N=Nc1ccccc1`, the TGI was above 100 µM.

With `Oc1ccccc1Nc1nc2ccccc2c2occc12`, the GI50 was 0.49 µM and the TGI stood at 6.48 µM.

Turning to `CN(C)CCCNC(=O)c1cc(NC(=O)c2cc(NC(=O)[C@H]3C[C@@H]3C(=O)Nc3cc(C(=O)Nc4cc(C(=O)NCCCN(C)C)n(C)c4)n(C)c3)cn2C)cn1C`, the TGI is above 100 µM.

As for `CC(C)/C(Cl)=N\OC(=O)Nc1ccc(F)c([N+](=O)[O-])c1`, the TGI stood at 26.7 µM.

For the molecule `CO/N=C(\COc1ccc2c(c1)oc(=O)c1cc(OC)ccc12)c1cccc(OC)c1`, the GI50 is above 100 µM and the TGI was above 100 µM.

Turning to `O=C(O)C(Cc1cnc[nH]1)N=Cc1nc(-c2ccccc2)oc1O` (stereo unspecified), the TGI is above 100 µM.

Regarding `Cc1ccc(S(=O)C[C@@]2(C(F)F)NC(=O)NC2=O)cc1` (stereo partly specified), the TGI is above 100 µM.

In the case of `Cc1ccc([N+](=O)[O-])cc1NC(=O)C(=O)Cc1cc(=O)oc2cc(O)ccc12`, the TGI was above 100 µM.

For the molecule `Oc1ccc2c3c1OC1C(=NN=C4CCC5(O)C6Cc7ccc(O)c8c7C5(CCN6CC5CC5)C4O8)CCC4(O)C(C2)N(CC2CC2)CCC314` (stereo unspecified), the TGI was above 100 µM.

Turning to `CC1(C)N=C(N)N=C(N)N1c1ccc(OCC(=O)N2CCOCC2)c(Cl)c1`, the GI50 is 0.721 µM and the TGI is above 100 µM.

For `COc1cccc(C2C(C(=O)O)=C(CO)Oc3cc4c(cc32)OCO4)c1` (stereo unspecified), the TGI was above 100 µM.

For the molecule `N#Cc1c(NC(=O)c2cccc3ccccc23)sc2c1CCCC2`, the GI50 is 0.162 µM and the TGI is above 25 µM.

With `NC(CCCNc1cccc(O)c1)C(=O)O` (stereo unspecified), the TGI was above 100 µM.

Consider `O=C(Nc1nncs1)NS(=O)(=O)n1cnc2ccccc21`, for which the TGI is above 100 µM.

`CC(=O)OCC1OC(n2c3c(cc(C#N)c2=S)CCCCCC3)C(OC(C)=O)C(OC(C)=O)C1OC(C)=O` (stereo unspecified) registered a TGI above 100 µM.

`O=C(Nc1cccc([N+](=O)[O-])c1)c1ccc2ccccc2c1O`: the GI50 was 2.95 µM and the TGI stood at 8.93 µM.

Turning to `O=C(O)CSc1nnc(CCCCCCCCc2nnc(SCC(=O)O)o2)o1`, the TGI is above 100 µM.

In the case of `COc1ccc(N(C)c2nc(Cl)nc3ccn(C)c23)cc1`, the GI50 is below 0.01 µM and the TGI was above 100 µM.

In turn, `Fc1ccc(NCn2nc(COc3ccccc3Cl)n(/N=C/c3ccc(-c4ccc(Cl)cc4Cl)o3)c2=S)cc1Cl` registered a TGI above 100 µM.

As for `Clc1ccc2c(c1)CC1C[N+]3=C(CCCC3)C1=C2` (stereo unspecified), the TGI was above 100 µM.

Consider `O=C(CC/C(CC(=O)c1ccc(Cl)cc1)=N/O)Nc1ccc(Cl)c(Cl)c1`, for which the TGI was above 100 µM.

`O=NNc1cnccn1` gave a TGI above 1250 µM.

Take `CCN(CC)CCCNc1nc2ccccc2c2c(=O)c3cc(Cl)ccc3sc12`: the GI50 is 6.12 µM and the TGI worked out at 19.3 µM.

For `O=C(N1CCC(CN=c2cc3n(-c4ccc(Cl)cc4)c4ccccc4nc-3cc2Nc2ccc(Cl)cc2)CC1)N1CC1`, the GI50 is 1.78 µM and the TGI is 3.24 µM.

`COc1cc(OC)c2cc(C(=O)O)c(=O)oc2c1`: the GI50 was above 100 µM and the TGI is above 100 µM.

As to `Oc1ccc2ccccc2c1C(c1ccc(Cl)cc1)c1c(O)ccc2ccccc12`, the TGI worked out at 6.93 µM.

`COc1ccc2c[n+](C)c3c4cc(OC)c(OC)cc4ccc3c2c1` gave a TGI of 31.4 µM.

In the case of `COC(=O)c1c(C)cc2c(c1O)C1(O)C(=O)c3cc4c(c(O)c3C(=O)C1(OC)C(O)C2)C(=O)C=C(NC1OC(C)C(OC)C(O)C1OC)C4=O` (stereo unspecified), the TGI worked out at 0.955 µM.

`O=C1SC(c2ccccc2)(c2ccccc2)c2ccccc21` gave a TGI above 100 µM.
